Assay results from PubChem BioAssay (EPA / NIEHS).
Inconclusive results, whose numbers are uncertain, are shown with a selection of clear calls. Where the call is inconclusive, the potency comes from a doubtful curve fit. Calls of active or inactive are those of the source. How the source made its calls: active means hit-call score of the fitted dose curve at least 0.9, where 1 is the maximum; inconclusive means response in the unintended direction; inactive means score below 0.9.

The molecules below were run against GAL4 Transcription Factor (Internal Marker), GAL4 (gene 855828) (UniProt P04386) (assay: ATG_GAL4_XSP1: Attagene TRANS-FACTORIAL Multi-Species (XSP1) HepG2 Assay for GAL4 Transcription Factor (Internal Marker) (AID 2283789)).
Chain of UniProt P04386 (P04386 whole entry, looked up, the tested form may be a part): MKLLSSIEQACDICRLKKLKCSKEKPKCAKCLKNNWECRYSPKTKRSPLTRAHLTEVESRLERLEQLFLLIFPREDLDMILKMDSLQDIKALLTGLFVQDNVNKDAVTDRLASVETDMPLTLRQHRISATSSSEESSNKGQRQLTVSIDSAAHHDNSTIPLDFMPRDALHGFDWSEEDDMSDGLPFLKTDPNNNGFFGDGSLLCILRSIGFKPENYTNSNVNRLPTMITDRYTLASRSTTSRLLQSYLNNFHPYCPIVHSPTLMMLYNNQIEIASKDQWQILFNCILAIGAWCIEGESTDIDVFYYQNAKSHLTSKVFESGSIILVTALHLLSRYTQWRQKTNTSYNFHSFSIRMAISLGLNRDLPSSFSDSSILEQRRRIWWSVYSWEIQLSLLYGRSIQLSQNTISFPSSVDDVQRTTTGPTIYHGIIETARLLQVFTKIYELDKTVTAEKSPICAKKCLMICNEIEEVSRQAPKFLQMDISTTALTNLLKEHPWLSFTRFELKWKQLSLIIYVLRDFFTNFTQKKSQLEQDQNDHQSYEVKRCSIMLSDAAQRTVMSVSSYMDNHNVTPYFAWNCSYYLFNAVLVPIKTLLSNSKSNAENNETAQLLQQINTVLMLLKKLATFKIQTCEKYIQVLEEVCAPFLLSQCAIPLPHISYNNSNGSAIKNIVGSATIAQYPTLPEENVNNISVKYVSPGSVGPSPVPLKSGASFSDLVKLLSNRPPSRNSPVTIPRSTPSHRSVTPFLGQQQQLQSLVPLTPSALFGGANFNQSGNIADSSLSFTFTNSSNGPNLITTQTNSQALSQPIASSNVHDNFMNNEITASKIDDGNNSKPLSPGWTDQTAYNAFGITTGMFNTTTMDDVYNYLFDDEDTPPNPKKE
Method: ATG_XSP1_multi-species_TRANS is a cell-based, multiplexed assay created by modifying the existing Attagene TRANS-FACTORIAL system to include a panel of nuclear receptors from some or all the following species: human (Homo sapiens), mouse (Mus musculus), frog (Xenopus laevis), zebrafish (Danio rerio), chicken (Gallus gallus), and turtle (Chrysemys picta). The ECOTOX-FACTORIAL format uses HepG2, a human liver cell line, with measurements taken at 24 hours after chemical dosing in a 24-well plate. Xsp1 included 3 nM 6-alpha-fluorotestosterone to partially stimulate the androgen receptor.ATG_GAL4_XSP1 is one of 29 assay components measured or calculated from the ATG_XSP1_multi-species_TRANS assay. It is designed to make measurements of mRNA induction, a form of inducible reporter, as detected with fluorescence intensity signals by Reverse transcription polymerase chain reaction (RT-PCR) and Capillary electrophoresis technology.This assay endpoint, ATG_GAL4_XSP1, was analyzed in the positive analysis fitting direction relative to DMSO as the negative control and baseline of activity. Using a type of inducible reporter, measures of mRNA for gain-of-signal activity can be used to understand the background control at the transcription factor-level as they relate to the gene. Furthermore, this assay endpoint can be referred to as a secondary readout, because this assay has produced multiple assay endpoints where this one serves a background control function. To generalize the intended target to other relatable targets, this assay endpoint is annotated to the background measurement intended target family, where the subfamily is baseline control.
Human liver HepG2 cells are transiently transfected with multiple reporter transcription units (MRTUs) in 6-well plates using FuGene 6 reagent (Roche; 3 ml FuGene/1 mg DNA). The MRTU constructs are regulated by a cis-regulating element (promoter). […] A major difference between the CIS and TRANS system is that in CIS activities of endogenous TFs are measured, whereas the TRANS assay evaluates changes in activities of exogenous, chimeric NR-Gal4 proteins. […] At the end of 24 hour incubation, total RNA was isolated using TriZol reagent (Invitrogen). The isolated RNA is then reverse-transcribed using oligo(dT) primer and Mo-MLV reverse transcriptase (Invitrogen) with DNAse I (Ambion) treatment for 30 min. The one-tenth of the produced cDNA was amplified by PCR using Taq DNA polymerase (Invitrogen) and two reporter sequence-specific primers. The PCR products were fluorescently labeled by primer extension with 6-arboxyfluorescein (6-FAM) 5'-labeled reporter sequence-specific primer (2 min at 95 C, 20 s at 68 C and 10 min at 72 C) and these products were digested with 5U of HpaI (New England Biolabs) for 2h at 37 C. The fragments were purified using Qiaquick PCR columns (Qiagen), analyzed on an ABI 3130xL genetic analyzer (Applied Biosystems) with peak positions identified by using a set of X-rhodamine (ROX)-labeled MapMarker1000 molecular weight standards (BioVentures). The raw capillary electrophoresis data was processed using Attagraph software (Attagene).
With `CN(C)C(=N)N=C(N)N` the AC50 was inconclusive: 100000 nM.
With `CC/C(=C(\c1ccccc1)c1ccc(OCCN(C)C)cc1)c1ccccc1` the AC50 was inconclusive: 5550 nM.
With `C[C@]12CC[C@@H]3c4ccc(O)cc4CC[C@H]3[C@@H]1CCC2=O` the AC50 was inconclusive: 25.9 nM.
`CN(CCOc1ccc(CC2SC(=O)NC2=O)cc1)c1ccccn1` (stereo unspecified) was tested, and the AC50 was inconclusive: 100 nM.
`Cc1oc(-c2ccccc2)nc1CCOc1ccc(C[C@H](Nc2ccccc2C(=O)c2ccccc2)C(=O)O)cc1` was tested, and the AC50 was inconclusive: 2.05 nM.
In the case of `CC/C(=C(/CC)c1ccc(O)cc1)c1ccc(O)cc1`, the AC50 was inconclusive: 26.1 nM.
`C[C@]12CC[C@@H]3c4ccc(O)cc4CC[C@H]3[C@@H]1C[C@@H](O)[C@@H]2O` was tested, and the outcome was “inactive”.
For `CCCCC(CC)COC(=O)c1ccc(O)cc1` (stereo unspecified), the AC50 was inconclusive: 2200 nM.
`CC(=O)O[C@]1(C(C)=O)CC[C@H]2[C@@H]3C=C(Cl)C4=CC(=O)[C@@H]5C[C@@H]5[C@]4(C)[C@H]3CC[C@@]21C` was tested, and the AC50 was inconclusive: 13100 nM.
In the case of `CCCCC(CC)COC(=O)c1ccccc1C(=O)O` (stereo unspecified), the outcome was “inactive”.
`C#C[C@]1(O)CC[C@H]2[C@@H]3CCc4cc(O)ccc4[C@H]3CC[C@@]21C` was tested, and the AC50 was inconclusive: 25.2 nM.
